Measured values reported in the RNAGym collection of RNA variant scans (doi:10.1073/pnas.2313332121).
Variants at the background level are over-represented here.

B1: TPR 5TU (parent)
chain: GGAUCUUCUCGAUCUAACAAAAAAGACAAAUCUGCCACAAAGCUUGAGAGCAUCUUCGGAUGCAGAGGCGGCAGCCUUCGGUGGCGCGAUAGCGCCAACGUUCUCAACUAUGACACGCAAAACGCGUGCUCCGUUGAAUGGAGUUUAUCAUG

Variants of: B1
Assay: polymerase ribozyme fitness, log enrichment relative to wild type (log ratio); higher = more active; in vitro selection for triplet polymerase activity
Summary of the method: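 A heterodimeric triplet polymerase ribozyme had each of its subunits mutagenized by PCR into a library, which was transcribed. One round of in vitro selection, done in triplicate, annealed each library with a biotinylated primer, its partner subunit and triplets, then incubated it frozen at −7 °C before gel excision of extended constructs, streptavidin-bead capture and RT-PCR. Fitness is the logarithm of genotype enrichment relative to wild-type enrichment, based on Illumina sequencing of inputs and outputs and inverse-variance-weighted replicate averages. A base-2 logarithm is used, and genotypes were kept only with ≥10 input reads and ≥1 read per output.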
For GGAUCUUCUCGAUCUAACACAAAAGACAAAUGUGCCACAAAGCUUGAGAGCAUCUUCGCAUGCAGAGCCGGCAGCCUUCGGUGGCGAGAUAGCGCCAACGUUCUCAACGAUGACACGCAAAACGCGUGCUCCGUUGAAUGGAGUUUAUCAUG [A20C C32G G59C G68C C87A U109G], the “polymerase ribozyme fitness (log ratio)” value was no more than -4.2.
With GGAUCUUCUCGAUCUAACACAAAAGACAAAUCUGGCACAAAGCUUGAAAGCAUCUUCGGAUGCAGAGGCGGCAGCCUUCGGUGGCGCGAUAGCGCUAACGUUCUCAACUAUGACACGCAAAACGCGUGCUCCGUUGUAUGGAGUUUGUCAUG [A20C C35G G48A C96U A137U A147G] the “polymerase ribozyme fitness (log ratio)” value was no more than -4.2.
With GGAUCUUCUCGAUCUAACACAAAAGACAAAUCUGCAACAAAGCUUGAGAGUAUCGUCGGAUGCAGAGGGGGCUGCCUUCGAUGGCGCGAUAGCGCUAACGUUCUCAACUAUGACACGCAAAACGCGUGCUCCGUUGAAUGUAGUUUAUCAUG [A20C C36A C51U U55G C69G A73U G81A C96U G141U] the “polymerase ribozyme fitness (log ratio)” value was no more than -4.2.
With GGAUCUUCUCGAUCUAACACAAAAGACAAAUCUGCUACAAAGCUUGCGAGCAUCUUCGGAUGCAGAGGCGGCAGCCUUCGGUGGCGCGAUAGCGCCAACGUUCUCAACUAUGACACGCAAAACGCGUGCUCCGUUGAAUGGAGUUUAUCAUG [A20C C36U A47C] the “polymerase ribozyme fitness (log ratio)” value was -1.91.
With GGAUCUUCUCGAUCUAACACAAAAGACAAAUCUGCUACAAAGCUUGAGAGCAUCUUCGGAUGCAGAGGCGGCGGCCUUCGGUGGAGCGAUAGCGCCAACGUUCUCAACUAUGACACGCAAAACGCGUGCUCCGUUGAAUCGGGUUUAUAAUG [A20C C36U A73G C85A G140C A142G C149A] the “polymerase ribozyme fitness (log ratio)” value was no more than -4.2.
For GGAUCUUCUCGAUCUAACACAAAAGACAAAUCUGCCACAAAGGUUGAGAGCAUCUUCGGAUGCAGAGGCGGCAGCCUUCGGUUGCGCGAUAGCGCCAACGUUCUCAACUAUGACACGCAAAACGCGUGCUCCGUUGAAGGGAUUUAAUCAUG [A20C C43G G83U U139G G143U U146A], the “polymerase ribozyme fitness (log ratio)” value was no more than -4.2.
With GGAUCUUCUCGAUCUAACACAAAAGACAAAUCUGCCACAAAGUUUGAGAGCAUCUUCGGAUGCAGAGGCGGCAGCCUUCGGUGGGGCGAUAGCGCCAACGUUCUCAACUAUGACACGCAAAACGCGUGCUCCGUUGAAUGGAGUUUAUCAUG [A20C C43U C85G] the “polymerase ribozyme fitness (log ratio)” value was no more than -4.2.
For GGAUCUUCUCGAUCUAACACAAAAGACAAAUCUGCCACAAAGUUUGAGAGCAUCUUCGGAAGCAGAGGCGGCAGCCUUCGGUGGCGCGAUAGCGCCAAUGUUCUCAACUAUGACACGGAAAACGCGUGCUCCGUUGAAUGGAGUUUAUCAAG [A20C C43U U61A C99U C118G U151A], the “polymerase ribozyme fitness (log ratio)” value was no more than -4.2.
In the case of GGAUCUUCUCGAUCUAACACAAAAGACAAAUCUGCCACAAAGCUUGAGAGAAUCUUCGGAUGCAGAGGCGGCAGCCUUCGGUGGCGUGCUAGCGCCAACGUUCUCAACUAUGACACGCUAAACGCGUGCUCCGUUGAAUGGAGUUUAUGAUG [A20C C51A C87U A89C A119U C149G], the “polymerase ribozyme fitness (log ratio)” value is reported as no more than -4.2.
For GGAUCUUCUCGAUCUAACACAAAAGACAAAUCUGCCACAAAGCUUGAGAGCAUUUUCGGAUGCAGAGGCCGCAGCCUUCGGUGGCGCGAUAGAGCCAACGUUCUCAACUAUGACACGCAAAACGCGUGCUCCGUUGAAUGGAGUUUAUCAUG [A20C C54U G70C C93A], the “polymerase ribozyme fitness (log ratio)” value was no more than -4.2.
With GGAUCUUCUCGAUCUAACACAAAAGACAAAUCUGCCACAAAGCUUGAGAGCAUUUUCGGAUGCAGAGGCCGCAGCCUUCGGUGGCGCGAUAGAGCCAACGUUCUCAACUAUGACACGCAAAACGCGUGCUCCGUUGAAUGGAUUUUAUCAUG [A20C C54U G70C C93A G143U] the “polymerase ribozyme fitness (log ratio)” value was no more than -4.2.
For GGAUCUUCUCGAUCUAACACAAAAGACAAAUCUGCCACAAAGCUUGAGAGCAUUUACGGAUGCAGAGGCGGCAGCCUUCGGUGGGGCGAUAACGCCAACGUUCUCAACUAUGACACGCAAAACGCGUGCUCCGUUGAAUGAAGUUUAUCAUG [A20C C54U U56A C85G G92A G141A], the “polymerase ribozyme fitness (log ratio)” value was no more than -4.2.
With GGAUCUUCUCGAUCUAACACAAAAGACAAAUCUGCCACAAAGCUUGAGAGCAUUUGCGGAUGCAGAGCCGGCAGCCUUCGGUGGCGUGAUAGCGCCAACGUUCUCAACUAUGACACGCAAAACGCGUGCUCCGUUGAUUGGAGUUUAUCAUG [A20C C54U U56G G68C C87U A138U] the “polymerase ribozyme fitness (log ratio)” value was no more than -4.2.
With GGAUCUUCUCGAUCUAACACAAAAGACAAAUCUGCCACAAAGCUUGAGAGCAUCUUGGGGUGCAGAGGCGGCAGCCUUCGGUGGCGCGAUAGCGCAAACGUUCUCAACUAUGAUACGCAAAACGUGUGCUCCGUUGAAUGGAGUUUAUCAUG [A20C C57G A60G C96A C114U C125U] the “polymerase ribozyme fitness (log ratio)” value was no more than -4.2.
For GGAUCUUCUCGAUCUAACACAAAAGACAAAUCUGCCACAAAGCUUGAGAGCAUCUUCGGAUGCAGAGGCGGCAGACUUCGGUGGCGCGAUAGCGCUAACGUUCUCAACUAUGACACGGAAAACGCGUGCUCCGUUGAAUGAAGUUUAUCAUG [A20C C75A C96U C118G G141A], the “polymerase ribozyme fitness (log ratio)” value was no more than -4.2.
For GGAUCUUCUCGAUCUAACACAAAAGACAAAUCUGCCACAAAGCUUGAGAGCAUCUUCGGAUGCAGAGGCGGCAGGCUUCGGUGCCGUGAUAGCGCCAACGGUCUCAACUAUGACACGCAAAAUGCGUGCUACGUUGAAUGGAGUUUAUCAUG [A20C C75G G84C C87U U101G C123U C131A], the “polymerase ribozyme fitness (log ratio)” value was no more than -4.2.
For GGAUCUUCUCGAUCUAACACAAAAGACAAAUCUGCCACAAAGCUUGAGAGCAUCUUCGGAUGCAGAGGCGGCAGCCUUAGGCGGCGCGAUAGCGCCAACGUUCUCACCUAUGACACGCAAAACGCGUGCUCCGUUGAAUGGAGUUUAUCAUG [A20C C79A U82C A107C], the “polymerase ribozyme fitness (log ratio)” value was no more than -4.2.
With GGAUCUUCUCGAUCUAACACAAAAGACAAAUCUGCCACAAAGCUUGAGAGCAUCUUCGGAUGCAGAGGCGGCAGCCUUCGGUGGCGAGAUAGCGCCAACGUUCUCAACUAUGACACGCAAAACGCGUGCUCCGUUGAAUGGAGUUUAUCAUG [A20C C87A] the “polymerase ribozyme fitness (log ratio)” value was no more than -4.2.
In the case of GGAUCUUCUCGAUCUAACACAAAAGACAAAUCUGCCACAAAGCUUGAGAGCAUCUUCGGAUGCAGAGGCGGCAGCCUUCGGUGGCGGGAUAGCCCCAAAGUUCUCAUGUAUGACACGCAAAACGCGUGCUCCGUUGAAUGGAGUUUAUCAUG [A20C C87G G94C C99A A107U C108G], the “polymerase ribozyme fitness (log ratio)” value is reported as no more than -4.2.
